In article PMC12136788:
Some of the results follow.

T1: UNK ZnF1-3 (human, UniProt Q9C0B0 31-174)
T1 sequence: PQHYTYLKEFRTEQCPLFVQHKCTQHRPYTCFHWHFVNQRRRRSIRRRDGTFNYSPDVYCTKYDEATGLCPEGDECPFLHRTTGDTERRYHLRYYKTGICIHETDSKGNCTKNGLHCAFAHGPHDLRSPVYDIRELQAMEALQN

B1: chr2:134423880:134423881:-_ENSMUSG00000034723_ENSMUST00000038228|mus_mus|motif|central (ssRNA)
RNA: GGGAGUUCUACAGUCCGACGAUCUUUCUAGCCUCAAGAGAGUGCUGGGGAGCUGUGGUACCUGAUGUUUCUGACCUGACGGAAACACAUGCUUAACAACGACGGCAAAGACUUCCUGCACUUUAAGGAUGCUCUGGUUUUGCUCAACAGAGGAUUGAGCAUCA
B2: chr1:95368729:95368730:-_ENSG00000117519_ENST00000538964|hu_mus|FALSE|FALSE (ssRNA)
RNA: GGGAGUUCUACAGUCCGACGAUCCAACUGGGGCCAAUUUAGUGAGGAUUCGUUGACUUUCUUCACAGAGCCUGGCUGUAGCUUGUUUAUGAGUUCGCACAAUAUGAUGCCGUCCUUCAGCCCCAGCUGGAAGUUGGUGCCAAUCAACAGAGGAUUGAGCAUCA
B3: 34984249_34984737_613_CDS_ENSMUSG00000040356_ENSMUST00000046022|mouse|control|control (ssRNA)
RNA: GGGAGUUCUACAGUCCGACGAUCUGGCACAGGAGCUGGAUGAUCUUUGGGGGCAAAAUCCACCCCUUUCUUGAAGCCAGGUGGGACAGUGAGAAGAUCUUUCUCAAAGUCUAUCUCCUCCUCAGCUUCCUCCCGAGUAUGCAGCAACAGAGGAUUGAGCAUCA
B4: 37285161_37285281_333_CDS_ENSMUSG00000066798_ENSMUST00000053098|mouse|control|control (ssRNA)
RNA: GGGAGUUCUACAGUCCGACGAUCUCCAGUAUAGCAGGACAACAGCAACUUCCAGCCUACUUCUGCACUCUGUAGAAUGGUGAUUCUGACAUGUUUUGACUGUGUGAGUAAAAACUGAUCUCUCAUGAAAGUGGAGCAAGCAGCCAACAGAGGAUUGAGCAUCA
B5: chr6:41757443:41757444:+_ENSG00000214736_ENST00000398881|hu_mus|hu_hu_hu_mus_False|48_78 (ssRNA)
RNA: GGGAGUUCUACAGUCCGACGAUCGAACCGUGCAGAGGCAACAUCUCAGCCGACACUGUGGACUCAAGGGGCAGUGGGGGGGGGUUCAGGGAAGGGGAGGGAGUCAACUUCAGCUGCCACUCAGGUAGGAUCUUGUGGUCACAGCAACAGAGGAUUGAGCAUCA
B6: 27834996_27842404_729_3pUTR_ENSMUSG00000022263_ENSMUST00000090247|mouse|control|control (ssRNA)
RNA: GGGAGUUCUACAGUCCGACGAUCUGCAGGAUCUUCAGCAGCGGCUUGAUGGAGUCCCACUUGGAGCCGCGCAUGUCCACAAUCACUGUGAACCCUCGCUUGCAGACUUCCUCACUGGGAAUGCAGGCUAAAUAGGAAAUGAGCCAACAGAGGAUUGAGCAUCA
B7: chr4:140556289:140556290:+_ENSMUSG00000036622_ENSMUST00000037055|mus_mus|FALSE|FALSE (ssRNA)
RNA: GGGAGUUCUACAGUCCGACGAUCGAUGGAGCUCACCAGGCCCCCUUUGGCUGUGCAGAACCCUGUCCGAGUCACCACUGCUAGCACACGGGGUCCCACGUAGGCUCGGGCCUGCAGAAUGAGGGUGCCACAGAAGAGGGUGUGCAACAGAGGAUUGAGCAUCA
B8: chr1:225611761:225611762:-_ENSG00000143815_ENST00000272163|hu_mus|hu_hu_hu_mus_True|78_88 (ssRNA)
RNA: GGGAGUUCUACAGUCCGACGAUCCCAGGCCAUCGGCCUCUGACCACUUCACCAUCGGCAAAUUUCCUACUUGGCAUUUUCUAAAAUUAGUCUGGCCGCGCUCCGGCGGGAACUCCAGCCACUCCAGGACAGUCACCAGCAGCCCAACAGAGGAUUGAGCAUCA
B9: chr19:7360422:7360423:-_ENSMUSG00000024969_ENSMUST00000032557|mus_hu|FALSE|FALSE (ssRNA)
RNA: GGGAGUUCUACAGUCCGACGAUCAUAAGGGGGACUGCCACAGAAGGUGUCCAGCUUGUUCCCAAAGGUGAAUUCAUUGCUGAAGCCAAAGUCUGCAAUCUUGAUGUUCAUAUCAGCAUCCAAGAGCAGGUUUUCUGCCUUUAACAACAGAGGAUUGAGCAUCA
B10: chr5:37680062:37680063:+_ENSMUSG00000029121_ENSMUST00000031004|mus_hu|mus_mus_mus_hu_False|8_58 (ssRNA)
RNA: GGGAGUUCUACAGUCCGACGAUCUUUGGGUGUAGCUGGUACCUCGUACACAGGACCGUCAUACAUGCCCCUGGAAACACUAUGCAAUCCAAAAACCUUAUUCCUGAUUUUGACGCGCUGGUACAGGUGCUCUGGGAACGCCUUCAACAGAGGAUUGAGCAUCA
B11: chr17:87533601:87533602:+_ENSMUSG00000037104_ENSMUST00000041369|mus_mus|motif|central (ssRNA)
RNA: GGGAGUUCUACAGUCCGACGAUCUGUUGAGUGUGGGCUCACAGGGGCGGUAUGCUGUUUAAUCAAAUGCCACUUUUGUGCGGAAUCCGAGCCAGCAGGAAAAGGGCAUUUCUCCAGCAUUAAUUCAGAAAGAUGUAUUUUUCUCAACAGAGGAUUGAGCAUCA
B12: chr11:110355629:110355630:+_ENSMUSG00000020623_ENSMUST00000020949|mus_mus|motif|central (ssRNA)
RNA: GGGAGUUCUACAGUCCGACGAUCAUGGAUAACAGACAGCUUACUGUGUAAAUGUUCUAACGCUUUUACAAUAGAAACUGCGGUCUUUCCUAAGAUAUCCUCUGGAAUUGUUUGGCCUUUAUCAAUAACUUGUUUGUAGAAUUUCAACAGAGGAUUGAGCAUCA
B13: chr7:151048522:151048523:+_ENSG00000013374_ENST00000566856|hu_mus|hu_hu_hu_mus_True|1_1 (ssRNA)
RNA: GGGAGUUCUACAGUCCGACGAUCCUGUUUCUUAUUUAUUACGAUCUUGAUGUAAUUUUCUUGAAAUCCGAAAGUUUCAGCUAUUUGACACCUCAGGUCUCUACCAGUGACAUGCAAGCGGGUCUCCAACAAGCUUUUCCUAUCCAACAGAGGAUUGAGCAUCA
B14: chr1:129365822:129365823:+_ENSMUSG00000036155_ENSMUST00000038361|mus_mus|FALSE|FALSE (ssRNA)
RNA: GGGAGUUCUACAGUCCGACGAUCGUUUAAGAUGGCUUUUACUGCAUCUUCUACUUCCUCUCGGUUAUUGAGAUCCACAGUCCAGACGUGUGGCCGGCCGAUGAAGACUUCUGCGUAAGGAUGCUGGGAUGUCAGCUCUCUCAGCAACAGAGGAUUGAGCAUCA

target: T1, UNK ZnF1-3; test: nsRBNS (natural sequence RNA bind-n-seq); RBNS binding buffer (assumed for nsRBNS): 25 mM Tris pH 7.5, 150 mM KCl, 3 mM MgCl2, 0.01% Triton X-100, 500 ug/ml BSA, 20 U/ml SUPERase-In, 4 C; UNK is unkempt and MSI1 is Musashi-1; names of the RNAs are library labels; protein concentration not given here; high values mean tight binding

| Binder | binding signal |
| --- | --- |
| B1 | 0.624 enrichment R |
| B2 | 0.608 enrichment R |
| B3 | 0.76 enrichment R |
| B4 | 0.828 enrichment R |
| B5 | 2.24 enrichment R |
| B6 | 0.912 enrichment R |
| B7 | 1.5 enrichment R |
| B8 | 1.23 enrichment R |
| B9 | 0.562 enrichment R |
| B10 | 0.718 enrichment R |
| B11 | 0.512 enrichment R |
| B12 | 0.491 enrichment R |
| B13 | 0.759 enrichment R |
| B14 | 0.574 enrichment R |
